Consider 67 compounds from PubChem BioAssay AID2069 (Sanford-Burnham Center for Chemical Genomics, 2009).

In general, inhibition refers to the drop in the measured response relative to a control, in per cent.

The whole screen tested about 1,200 compounds, of which about 210 (18%) were called active. Rule as the data show it: active = inhibition above about 30%; inactive = the rest. This is a selection; strong and weak results do not stand in their true shares.

This test can be described thus: HTRF signal interference by compounds, confirmation, artefact control for SUMOylation inhibitor project, biochemical, uHTS (AID 2069). To be noted: HTRF interference counterscreen, fluorescence, at 35 µM, stronger effect = higher value. A general note: Time-resolved FRET reads energy transfer from a long-lived donor to a nearby acceptor.
Take `Cc1cccc(S(=O)(=O)C(C#N)c2nc3ccccc3nc2N2CCCC2)c1` (configuration not stated): the inhibition is inactive: 0.4%.

On to `Fc1ccc(-c2ccnc3nc(N4CCOCC4)nn23)cc1`, for which the inhibition is active: 32.5%.

Consider `COc1ccc(N2C(=O)[C@@H]3[C@H](C2=O)[C@H]2c4ccccc4C=CN2[C@@H]3C(C)=O)cc1`, for which the inhibition was inactive: 9.4%.

As for `O=c1c(-c2c(O)cc(O)c3c(=O)cc(-c4ccc(O)cc4)oc23)c(-c2ccc(O)cc2)oc2cc(O)cc(O)c12`, the inhibition was active: 35.6%.

Take `CCOC(=O)C1=C(N)n2c(s/c(=C/c3ccco3)c2=O)=C(C(=O)OC)C1c1ccco1` (configuration not stated): the inhibition is inactive: -8.65%.

On to `Cc1ccc(-n2cccn2)c([C@@H]2C[C@H]3CN(C)C(=O)[C@]34CCCN24)c1`, for which the inhibition was inactive: 4.05%.

Regarding `CCCCCn1c(N)c(C#N)c2nc3ccccc3nc21`, the inhibition is inactive: 16.7%.

With `Cc1ccc(NC(=O)COc2ccc(/C=C3/NC(=O)NC3=O)cc2)cc1`, the inhibition is inactive: 6.2%.

As to `CCOC(=O)C(CCCCOc1ccc([N+](=O)[O-])cc1)C(=O)OCC`, the inhibition is inactive: 3.85%.

With `Oc1c(C=Nc2cccc3nsnc23)ccc2ccccc12`, the inhibition was inactive: 14.2%.

Consider `C=CCOc1c(Br)cc(/C=C2\SC(=Nc3ccccc3)NC2=O)cc1OC`, for which the inhibition was inactive: 9.1%.

Regarding `C=CCN1C(=O)N(/C=C/C)c2cccc3cccc1c23`, the inhibition was inactive: -13.1%.

Regarding `CC(C)N1CCC2(CC1)C(C#N)=C(N)NC(S)=C2C#N`, the inhibition is active: 33.9%.

Take `CCN(c1ccccc1)S(=O)(=O)c1ccc(Cl)c(NC(=O)COC(=O)c2cc(O)c3ccccc3c2O)c1`: the inhibition is inactive: 0.45%.

With `CCC(=O)c1ccccc1OCCSc1nc(C)cc(=O)[nH]1`, the inhibition was inactive: -8.6%.

As to `COc1ccc(-c2cc(-c3ccccc3)n3ncnc3n2)cc1`, the inhibition is active: 53.7%.

For the compound `S=c1[nH]nc(-c2cccc(Cl)c2)n1/N=C/c1ccc(-c2ccccc2Br)o1`, the inhibition is inactive: 7.3%.

Take `O=C(N/N=C/c1ccc(-c2cccc([N+](=O)[O-])c2)o1)c1ccccc1O`: the inhibition is inactive: 2.3%.

Take `C=CCOC(=O)C(C#N)c1nc2ccccc2nc1N1CCN(Cc2ccccc2)CC1` (configuration not stated): the inhibition is inactive: -1.65%.

For `Cc1cccc(C)c1OCC(=O)N=Nc1c(O)[nH]c2ccc(Br)cc12`, the inhibition is inactive: -1.15%.

As for `COc1ccc(OC)c(/C=C2\S/C(=N/NC(=O)c3ccc4ccccc4c3)NC2=O)c1`, the inhibition is inactive: 8.75%.

`Cc1oc2c(c1C(=O)O)C(=O)c1ccccc1C2=O`: the inhibition was inactive: -5.95%.

Turning to `COc1ccc2c(c1)Cc1sc(NC(=O)c3cccs3)nc1-2`, the inhibition was inactive: 13.1%.

Consider `Oc1ccc(N=Cc2ccc(-c3cccs3)s2)cc1`, for which the inhibition is inactive: -1.7%.

`Nc1ccc(O)cc1C(=O)OCC(=O)c1ccc(C2CCCCC2)cc1`: the inhibition is inactive: 21.6%.

On to `C/C(=C\C(=O)c1ccccc1)Nc1ccc(O)cc1`, for which the inhibition is inactive: 10.8%.

In the case of `CC1=C(C(=O)Nc2ccccc2)C(c2ccc(C)cc2)N=C(Nc2nc3ccccc3o2)N1` (configuration not stated), the inhibition is inactive: 10.2%.

On to `COC(=O)c1cc(O)cc(OC)c1Oc1cc(C)cc(O)c1C(=O)O`, for which the inhibition is inactive: 11%.

For the compound `[O-]/C(=C(\C(=S)Nc1cccc2ccccc12)[n+]1ccccc1)c1ccc(Cl)s1`, the inhibition is inactive: -8.3%.

`CN(CCC#N)C(=O)COC(=O)c1c2c(nc3ccccc13)/C(=C/c1ccco1)CC2`: the inhibition is active: 36.5%.

For the compound `COn1c(C)c(C)c2c3nonc3ccc21`, the inhibition is inactive: 15.1%.

For `Cc1cc(/C=C2\C(=O)NN(c3ccccc3)C2=O)c(C)n1-c1ccccc1O`, the inhibition was inactive: -1.5%.

With `Cc1ccc(C)c(NC(=S)Nc2cccc3cnccc23)c1`, the inhibition was inactive: 4.35%.

As for `CCCCN(C)S(=O)(=O)c1cc(Br)cc2c1N(C(=O)C1CC1)CC2`, the inhibition is inactive: -7.7%.

As to `COc1cc(/C=C2\C(=O)N(CCC#N)N=C2C)ccc1OCC(=O)Nc1ccccc1`, the inhibition is inactive: -9.5%.

In the case of `O=C(Nc1ccccc1)Nc1ccno1`, the inhibition was active: 47.1%.

For `S=C(Nc1ccc2nsnc2c1)N1CCCC1`, the inhibition was active: 35.6%.

With `CSc1nnc(-c2ccco2)c(-c2ccco2)n1`, the inhibition is inactive: 27.1%.

`COC(=O)c1nc2n(n1)C(c1ccc([N+](=O)[O-])cc1)C(C(=O)Nc1ccc(Cl)cc1)=C(C)N2` (configuration not stated): the inhibition is inactive: 1.4%.

Consider `Cc1ccc(C)c(S(=O)(=O)C(C#N)c2nc3ccccc3nc2N2CCOCC2)c1` (configuration not stated), for which the inhibition is inactive: 9.05%.

Regarding `Fc1cccc(NC(=S)Nc2cccc3ccccc23)c1`, the inhibition was inactive: -11.6%.

Turning to `Cc1ccc(C)c(S(=O)(=O)c2c(N)n(/N=C/c3ccco3)c3nc4ccccc4nc23)c1`, the inhibition was inactive: -11.7%.

`CCC(NC(=O)Cc1c(C)c2c(cc(C)c3c(C)c(C)oc32)oc1=O)C(=O)O` (configuration not stated): the inhibition is active: 51.6%.

Consider `Cc1ccc(Cn2nnnc2CN2CCC(NC(=O)C(C)(C)C)CC2)cc1`, for which the inhibition was inactive: 5.15%.

For the compound `Cc1cc(-c2csc(NC(=O)c3ccc(=O)[nH]c3)n2)c(C)n1Cc1ccccc1`, the inhibition is inactive: -12.3%.

As to `NC(=O)c1ccc(N=C2C(=O)Nc3ccc([N+](=O)[O-])cc32)cc1`, the inhibition was inactive: -4.65%.

Regarding `CC(C)(C)c1cc(=O)n(-c2ccccc2)[nH]1`, the inhibition is inactive: -0.65%.

In the case of `Cc1ccc(NC(=O)C2CCN(C(=O)c3ccco3)CC2)cc1`, the inhibition was inactive: 4.45%.

`Brc1ccc(OCCN2CCOCC2)cc1`: the inhibition is inactive: -8.15%.

Consider `CCOC(=O)NC(=O)COC(=O)c1ccc(O)cc1`, for which the inhibition was inactive: -2.1%.

For `O=C(Cc1cccs1)N/N=C/C=C\c1ccco1`, the inhibition was inactive: -3.3%.

For the compound `Cc1cccc(-c2n[nH]c(=S)n2/N=C/C=C/c2ccco2)c1`, the inhibition was inactive: 22.3%.

Take `COc1cc2c(cc1OC)C(C)=NC1(CCCCC1)C2`: the inhibition was active: 31.6%.

Regarding `O=C(NCc1ccccc1)Nc1cccn(Cc2c(F)cccc2Cl)c1=O`, the inhibition is inactive: 3.05%.

For `O=C(Nc1cccc2ccccc12)N1CCc2ccccc2C1`, the inhibition was inactive: -0.3%.

Turning to `Cc1ccc(/C=C(\C#N)C(=O)Nc2cccc3ncccc23)o1`, the inhibition is inactive: 2.8%.

With `Cc1ccc(C)c(-c2nc3ccc(N)cc3[nH]2)c1`, the inhibition was active: 57%.

As for `Cc1cc(/C=N/Nc2ccc([N+](=O)[O-])cn2)c(C)n1-c1ccc(C(=O)O)cc1`, the inhibition was inactive: -10.8%.

Turning to `O=C(O)CC(C(=O)O)N1C(=O)/C(=C/C=C/c2ccco2)SC1=S` (configuration not stated), the inhibition was inactive: 5.6%.

In the case of `Cc1ccc2[nH]c3c(c2c1)CN(C(=O)CN1CCCc2ccccc21)CC3`, the inhibition was inactive: 6%.

As for `Cc1cc(NC(=O)Cn2c(=O)n(Cc3ccccc3)c(=O)c3ccccc32)no1`, the inhibition was inactive: -6.1%.

Consider `COc1cc(/C=C2\SC(=O)N(CC(=O)Nc3ccccc3F)C2=O)cc(Cl)c1O`, for which the inhibition was inactive: 2%.

For the compound `N#CC(C(=O)NC1CC1)c1nc2ccccc2nc1N1CCCC1` (configuration not stated), the inhibition was inactive: -0.3%.

As for `CC(C)c1onc(C(=O)N2CCC(C(N)=O)CC2)c1[N+](=O)[O-]`, the inhibition was inactive: 6.25%.

Turning to `O=C(NC1(O)C(=O)c2ccccc2C1=O)c1ccccc1`, the inhibition is active: 57.5%.

As for `O=c1nc2s/c(=C\c3ccco3)c(=O)n2nc1Cc1ccccc1`, the inhibition is inactive: 13.8%.

For the compound `O=C(Nc1cccc(N=Cc2cc(Br)cc(Br)c2O)c1)c1ccco1`, the inhibition is inactive: 17.1%.
